# Results taken from the supplement of paper PMC8728848.
# The list shows a part of the results.
# B1: LCA (Lens culinaris), P02870 (protein)
# chain: MASLQTQMISFYLIFLSILLTTIFFFKVNSTETTSFSITKFSPDQKNLIFQGDGYTTKGKLTLTKAVKSTVGRALYSTPIHIWDRDTGNVANFVTSFTFVIDAPSSYNVADEFTFFIAPVDTKPQTGGGYLGVFNSKEYDKTSQTVAVEFDTFYNAAWDPSNKERHIGIDVNSIKSVNTKSWNLQNGERANVVIAFNAATNVLTVTLTYPNSLEEENVTSYTLNEVVPLKDVVPEWVRIGFSATTGAEFAAHEVHSWSFHSELGGTSSSKQAADA
# What was measured:
# Test in all cases: glycan array binding signal (z-score within array); higher = stronger binding
# Settings in all cases: glycan notation: IUPAC condensed, linker removed
# [1] = target: Gal(b1-3)[Fuc(a1-4)]GlcNAc(b1-2)Man
# How it was run: (§1)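 The binding signal is a Z-score computed within each array. Data were drawn from 3228 arrays in the Consortium for Functional Glycomics database, restricted to those with a known protein sequence. Scores were averaged over arrays of the same protein sequence at different concentrations or buffers, and over linkers, and negative values can be taken as non-binding.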
# [2] = target: Gal(b1-3)[Fuc(a1-4)]GlcNAc(b1-2)Man(a1-3)[Gal(b1-3)[Fuc(a1-4)]GlcNAc(b1-2)Man(a1-6)]Man(b1-4)GlcNAc(b1-4)[Fuc(a1-6)]GlcNAc
# How it was run: as §1
# [3] = target: Gal(b1-3)[Fuc(a1-4)]GlcNAc(b1-3)Gal(b1-3)[Fuc(a1-4)]GlcNAc
# How it was run: as §1
# [4] = target: Gal(b1-3)[Fuc(a1-4)]GlcNAc(b1-3)Gal(b1-4)GlcNAc
# How it was run: as §1
# [5] = target: Gal(b1-3)[Fuc(a1-4)]GlcNAc(b1-3)Gal(b1-4)[Fuc(a1-3)]GlcNAc
# How it was run: as §1
# [6] = target: Gal(b1-3)[Fuc(a1-4)]GlcNAc(b1-6)GalNAc
# How it was run: as §1
# [7] = target: Gal(b1-3)[GlcNAc(b1-6)]GalNAc
# How it was run: as §1
# [8] = target: Gal(b1-3)[Neu5Ac(a2-6)]GalNAc
# How it was run: as §1
# [9] = target: Gal(b1-3)[Neu5Ac(a2-6)]GlcNAc(b1-4)Gal(b1-4)Glc
# How it was run: as §1
# [10] = target: Gal(b1-3)[Neu5Ac(a2-6)]GlcNAc(b1-6)Gal(b1-4)Glc
# How it was run: as §1
# [11] = target: Gal(b1-3)[Neu5Ac(b2-6)]GalNAc
# How it was run: as §1
# Gal(b1-4)Gal = target: Gal(b1-4)Gal
# How it was run: as §1
# [12] = target: Gal(b1-4)GalNAc(a1-3)[Fuc(a1-2)]Gal(b1-4)GlcNAc
# How it was run: as §1
# [13] = target: Gal(b1-4)GalNAc(b1-3)[Fuc(a1-2)]Gal(b1-4)GlcNAc
# How it was run: as §1
# Gal(b1-4)Glc = target: Gal(b1-4)Glc
# How it was run: as §1
# Gal(b1-4)Glc6S = target: Gal(b1-4)Glc6S
# How it was run: as §1
# Gal(b1-4)GlcNAc = target: Gal(b1-4)GlcNAc
# How it was run: as §1
# [14] = target: Gal(b1-4)GlcNAc(a1-6)Gal(b1-4)GlcNAc
# How it was run: as §1
# Gal(b1-4)GlcNAc(b1-2)Man = target: Gal(b1-4)GlcNAc(b1-2)Man
# How it was run: as §1
# [15] = target: Gal(b1-4)GlcNAc(b1-2)Man(a1-3)Man(b1-4)GlcNAc(b1-4)GlcNAc
# How it was run: as §1
# [16] = target: Gal(b1-4)GlcNAc(b1-2)Man(a1-3)[Gal(b1-4)GlcNAc(b1-2)Man(a1-6)]Man(b1-4)GlcNAc(b1-4)GlcNAc
# How it was run: as §1
# [17] = target: Gal(b1-4)GlcNAc(b1-2)Man(a1-3)[Gal(b1-4)GlcNAc(b1-2)Man(a1-6)]Man(b1-4)GlcNAc(b1-4)[Fuc(a1-6)]GlcNAc
# How it was run: as §1
# [18] = target: Gal(b1-4)GlcNAc(b1-2)Man(a1-3)[Gal(b1-4)GlcNAc(b1-2)Man(a1-6)][Gal(b1-4)GlcNAc(b1-4)]Man(b1-4)GlcNAc(b1-4)[Fuc(a1-6)]GlcNAc
# How it was run: as §1
# [19] = target: Gal(b1-4)GlcNAc(b1-2)Man(a1-3)[Gal(b1-4)GlcNAc(b1-2)Man(a1-6)][GlcNAc(b1-4)]Man(b1-4)GlcNAc(b1-4)[Fuc(a1-6)]GlcNAc
# How it was run: as §1
# [20] = target: Gal(b1-4)GlcNAc(b1-2)Man(a1-3)[GlcNAc(b1-2)Man(a1-6)]Man(b1-4)GlcNAc(b1-4)GlcNAc
# How it was run: as §1
# [21] = target: Gal(b1-4)GlcNAc(b1-2)Man(a1-3)[GlcNAc(b1-4)][Gal(b1-4)GlcNAc(b1-2)Man(a1-6)]Man(b1-4)GlcNAc(b1-4)GlcNAc
# How it was run: as §1
# [22] = target: Gal(b1-4)GlcNAc(b1-2)Man(a1-3)[Man(a1-6)]Man(b1-4)GlcNAc(b1-4)GlcNAc
# How it was run: as §1
# [23] = target: Gal(b1-4)GlcNAc(b1-2)Man(a1-6)Man(b1-4)GlcNAc(b1-4)GlcNAc
# How it was run: as §1
# [24] = target: Gal(b1-4)GlcNAc(b1-2)Man(a1-6)[GlcNAc(b1-2)Man(a1-3)]Man(b1-4)GlcNAc(b1-4)GlcNAc
# How it was run: as §1
# [25] = target: Gal(b1-4)GlcNAc(b1-2)Man(a1-6)[Man(a1-3)]Man(b1-4)GlcNAc(b1-4)GlcNAc
# How it was run: as §1
# [26] = target: Gal(b1-4)GlcNAc(b1-2)[Gal(b1-4)GlcNAc(b1-4)]Man(a1-3)[Gal(b1-4)GlcNAc(b1-2)Man(a1-6)]Man(b1-4)GlcNAc(b1-4)GlcNAc
# How it was run: as §1
# [27] = target: Gal(b1-4)GlcNAc(b1-2)[Gal(b1-4)GlcNAc(b1-4)]Man(a1-3)[Gal(b1-4)GlcNAc(b1-2)[Gal(b1-4)GlcNAc(b1-6)]Man(a1-6)]Man(b1-4)GlcNAc(b1-4)GlcNAc
# How it was run: as §1
# [28] = target: Gal(b1-4)GlcNAc(b1-2)[Gal(b1-4)GlcNAc(b1-4)]Man(a1-3)[GlcNAc(b1-4)][Gal(b1-4)GlcNAc(b1-2)Man(a1-6)]Man(b1-4)GlcNAc(b1-4)GlcNAc
# How it was run: as §1
# [29] = target: Gal(b1-4)GlcNAc(b1-2)[Gal(b1-4)GlcNAc(b1-4)]Man(a1-3)[GlcNAc(b1-4)][Gal(b1-4)GlcNAc(b1-2)[Gal(b1-4)GlcNAc(b1-6)]Man(a1-6)]Man(b1-4)GlcNAc(b1-4)GlcNAc
# How it was run: as §1
# [30] = target: Gal(b1-4)GlcNAc(b1-2)[Gal(b1-4)GlcNAc(b1-6)]Man(a1-6)[Gal(b1-4)GlcNAc(b1-2)Man(a1-3)]Man(b1-4)GlcNAc(b1-4)GlcNAc
# How it was run: as §1
# [31] = target: Gal(b1-4)GlcNAc(b1-2)[Gal(b1-4)GlcNAc(b1-6)]Man(a1-6)[Gal(b1-4)GlcNAc(b1-2)Man(a1-3)]Man(b1-4)GlcNAc(b1-4)[Fuc(a1-6)]GlcNAc
# How it was run: as §1
# [32] = target: Gal(b1-4)GlcNAc(b1-2)[Gal(b1-4)GlcNAc(b1-6)]Man(a1-6)[GlcNAc(b1-4)][Gal(b1-4)GlcNAc(b1-2)Man(a1-3)]Man(b1-4)GlcNAc(b1-4)GlcNAc
# How it was run: as §1
# [33] = target: Gal(b1-4)GlcNAc(b1-2)[Gal(b1-4)GlcNAc(b1-6)]Man(a1-6)[GlcNAc(b1-4)][Gal(b1-4)GlcNAc(b1-2)[Gal(b1-4)GlcNAc(b1-4)]Man(a1-3)]Man(b1-4)GlcNAc(b1-4)[Fuc(a1-6)]GlcNAc
# How it was run: as §1
binder,measurement,setting,value
B1,glycan array binding signal (z-score),[1],-0.189
same,glycan array binding signal (z-score),[2],0.823
same,glycan array binding signal (z-score),[3],-0.221
same,glycan array binding signal (z-score),[4],-0.232
same,glycan array binding signal (z-score),[5],-0.232
same,glycan array binding signal (z-score),[6],-0.193
same,glycan array binding signal (z-score),[7],-0.238
same,glycan array binding signal (z-score),[8],-0.204
same,glycan array binding signal (z-score),[9],-0.254
same,glycan array binding signal (z-score),[10],-0.221
same,glycan array binding signal (z-score),[11],-0.232
same,glycan array binding signal (z-score),Gal(b1-4)Gal,-0.259
same,glycan array binding signal (z-score),[12],-0.21
same,glycan array binding signal (z-score),[13],-0.223
same,glycan array binding signal (z-score),Gal(b1-4)Glc,-0.209
same,glycan array binding signal (z-score),Gal(b1-4)Glc6S,-0.199
same,glycan array binding signal (z-score),Gal(b1-4)GlcNAc,-0.211
same,glycan array binding signal (z-score),[14],-0.184
same,glycan array binding signal (z-score),Gal(b1-4)GlcNAc(b1-2)Man,-0.209
same,glycan array binding signal (z-score),[15],-0.219
same,glycan array binding signal (z-score),[16],0.157
same,glycan array binding signal (z-score),[17],3.7
same,glycan array binding signal (z-score),[18],-0.251
same,glycan array binding signal (z-score),[19],-0.219
same,glycan array binding signal (z-score),[20],0.015
same,glycan array binding signal (z-score),[21],-0.228
same,glycan array binding signal (z-score),[22],-0.241
same,glycan array binding signal (z-score),[23],-0.22
same,glycan array binding signal (z-score),[24],0.021
same,glycan array binding signal (z-score),[25],-0.2
same,glycan array binding signal (z-score),[26],-0.193
same,glycan array binding signal (z-score),[27],-0.236
same,glycan array binding signal (z-score),[28],-0.245
same,glycan array binding signal (z-score),[29],-0.235
same,glycan array binding signal (z-score),[30],-0.294
same,glycan array binding signal (z-score),[31],4.72
same,glycan array binding signal (z-score),[32],-0.234
same,glycan array binding signal (z-score),[33],-0.263
